Measurements taken from paper PMC6919601, “Identification of Plasmodium dipeptidyl aminopeptidase allosteric inhibitors by high throughput screening” (PLoS ONE, 2019).
Several values for one entry are separate records, joined by “and”; a condition that tells them apart may be missing. Equal values may be shown once. The campaign covered roughly 110,000 compounds. About 230 (0.21%) showed an effect of 50% or more. The list shows a part of the results.

Target: DPAP1 (Plasmodium falciparum, UniProt Q8IIJ9)
Sequence (Q8IIJ9 whole entry, looked up): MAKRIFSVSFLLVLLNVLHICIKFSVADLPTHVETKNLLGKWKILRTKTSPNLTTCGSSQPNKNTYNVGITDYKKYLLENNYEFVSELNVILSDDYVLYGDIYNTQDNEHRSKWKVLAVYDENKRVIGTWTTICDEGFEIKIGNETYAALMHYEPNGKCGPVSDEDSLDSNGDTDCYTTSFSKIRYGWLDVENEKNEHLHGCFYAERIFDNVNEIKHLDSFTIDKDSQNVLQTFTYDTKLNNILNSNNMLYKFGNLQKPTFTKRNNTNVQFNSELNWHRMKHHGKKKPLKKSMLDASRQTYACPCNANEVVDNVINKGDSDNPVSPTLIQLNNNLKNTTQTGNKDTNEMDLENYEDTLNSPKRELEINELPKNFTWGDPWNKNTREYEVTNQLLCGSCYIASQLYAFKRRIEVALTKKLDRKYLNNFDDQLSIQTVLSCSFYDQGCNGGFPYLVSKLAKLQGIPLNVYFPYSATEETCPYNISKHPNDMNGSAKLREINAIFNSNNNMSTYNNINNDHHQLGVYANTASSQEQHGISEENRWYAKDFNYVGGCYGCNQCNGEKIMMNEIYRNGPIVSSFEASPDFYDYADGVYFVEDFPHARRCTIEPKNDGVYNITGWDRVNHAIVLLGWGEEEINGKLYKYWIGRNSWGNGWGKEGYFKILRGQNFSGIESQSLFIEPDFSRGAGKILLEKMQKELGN
Test: primary screen, percent inhibition; read by cleavage of a fluorogenic dipeptide substrate; higher = more effect of the substance
Design: species or system P. falciparum D10 trophozoite lysates; single well
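Further: 30 min substrate incubation versus DMSO and 10 µM JCP410 controls.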

| SMILES | % Inhibition @ 10 uM |
| --- | --- |
| Cc1nn(C)cc1CNC(=O)c1cc2n(n1)C(C(F)(F)F)CC(c1cccs1)N2 (stereo not drawn) | 6.52% |
| Cc1scc(CN(C)Cc2ccccc2)c1C | -3.91% |
| COc1ccc(C(=O)N(Cc2ccco2)Cc2ccco2)cc1Cl | -2.84% |
| CC(C)N1C(=O)CCC1C(=O)N1CCC2(CC1)OCCO2 (stereo not drawn) | 2.05% |
| CC1CCC(NC(C)CCCC(C)(C)O)CC1 (stereo not drawn) | 1.43% |
| O=C(c1ccc2nc(N3CCCCC3)sc2c1)N1CCN(Cc2ccc3c(c2)OCO3)CC1 | -0.637% |
| CCc1nc2ccccc2c(C(=O)NCc2ccccc2)c1C | 5.73% |
| Cc1ccc(NS(=O)(=O)c2ccc(NS(=O)(=O)c3ccc4c(c3)OCCO4)cc2)cc1C | -3.58% |
| O=C(O)/C=C/C(=O)Nc1ccc(-c2ccc([N+](=O)[O-])cc2)cc1 | 2.13% |
| COc1ccccc1N(C)S(=O)(=O)c1ccc(Cl)cc1 | -3.38% |
| O=C(NC1CCCC1)c1ccc2nc3[nH]c4ccccc4c3nc2c1 | -3.94% |
| CC(C)C(=O)n1nc(-c2cccnc2)nc1NCc1cccs1 | 2.21% |
| Cc1cc(-c2ccc(NC(=O)c3ccoc3C)c(C)c2)ccc1NC(=O)c1ccoc1C | 0.235% |
| COC(=O)c1ccc(-c2ccco2)n1CC(=O)NCCc1ccc(Cl)cc1 | -2.88% |
| O=C(Nc1cccc(S(=O)(=O)N2CCOCC2)c1)c1ccc(Cl)cc1Cl | 14.7% |
| Cc1nc2c(c(C)nn2-c2ccccc2)c(C)c1CCC(=O)NCCN1CCOCC1 | -2.45% |
| Cc1cccc(NC(=O)Cn2ncc3c2-c2ccccc2OC3)n1 | -0.154% |
| CCn1ncc(C2=NOC(C(=O)Nc3c(C)nn(Cc4ccc(F)cc4)c3C)C2)c1C (stereo not drawn) | -3.08% |
| Cc1cc(C)nc(SCCN(C)C)n1 | -1.22% |
| O=C(NC1(C(F)(F)F)C(=O)Nc2c1c(=O)[nH]c(=O)n2-c1ccc(Cl)cc1)c1cccc(Cl)c1 (stereo not drawn) | -0.173% |
| CCc1nnc(NC(=O)Cc2coc3cc(C)cc(C)c23)s1 | -6.04% |
| Cc1ccccc1-c1noc(CCC(=O)NC(C)C)n1 | 0.366% |
| Cc1cccc(NC(=O)C(C)Oc2ccccc2)c1C (stereo not drawn) | 3.91% |
| COc1cc2c(cc1OC)C(C)=NC(C)(C)C2 | 2.22% and 1.83% |
| CN1C(=O)C(C(=O)Nc2ccccc2)c2ccccc21 (stereo not drawn) | 26.3% |
| CC(C)CCSc1nc2c(c(=O)[nH]c(=O)n2C)n1CCc1ccccc1 | -7.75% |

| SMILES | % Inhibition @ 10 uM |
| --- | --- |
| CCCCCCNC(=O)c1cnn2c(C)c(Cc3ccccc3C)c(C)nc12 | 2.9% |
| CCNC(=O)C1CCN(S(=O)(=O)c2ccc(Cl)cc2)CC1 | -0.68% |
| CC(Cc1ccccc1F)NCC1CCCO1 (stereo not drawn) | -8.75% |
| CC(=O)N1CCN(c2ccc(NCc3ccc(C(C)C)cc3)cc2)CC1 | 3.89% |
| O=C(COc1ccc(Cl)cc1Cl)Nc1ccccc1Br | 2.47% |
| CCC(Cc1ccccc1)NC(=O)CCNS(=O)(=O)c1cc(Br)cnc1N (stereo not drawn) | -7.32% |
| O=C1/C(=C/c2ccco2)CCC1C1CCCC1 (stereo not drawn) | 13.3% |
| COc1cc(OC)c(OC)cc1CN1CCN(Cc2cc(OC)c(OC)cc2Br)CC1 | 8.36% |
| O=C(CCCCCN1C(=O)c2ccccc2C1=O)NC1CCCC1 | 5.7% |
| COc1cccc(OCC(O)CN2CCN(C)CC2)c1 (stereo not drawn) | -3.49% |
| Cc1cccc(OCCCCN2CCCCC2)c1C | -2.28% |
| COc1ccc(CCN2CNc3c(c(=O)n(C)c(=O)n3C)C2)cc1OC | -1.47% |
| Fc1ccc(CN2CCN(c3ccccc3F)CC2)cc1F | -3.71% |
| CCOc1ccccc1N1C(=O)C2C3c4ccccc4C(CO)(c4ccccc43)C2C1=O (stereo not drawn) | -7.34% |
| CCOC(=O)c1[nH]c(C)c(CCC(=O)O)c1C | -3.06% |
| O=c1[nH]c(=O)n(Cc2ccccc2)c2c1C(C(F)(F)F)(C(F)(F)F)NC(C1CCCCC1)=N2 | -6.78% |
| O=S(=O)(Nc1ccccc1Cl)c1ccccc1Cl | 0.132% |
| COc1cc(C(=O)N2CCN(C(=O)c3ccco3)CC2)cc(OC)c1OC | 3.16% |
| CC1(CO)SC2=NCN(c3ccccc3)CN2C1=O (stereo not drawn) | 14.6% |
| Cc1[nH]nc2c1C(c1cc(CN3CCOCC3)cs1)C(C#N)=C(N)O2 (stereo not drawn) | 0.776% |
| O=S(=O)(c1cccc(S(=O)(=O)N2CCN(c3cnccn3)CC2)c1)N1CCOCC1 | -1.29% |
| O=C(c1ccc2c(c1)ncn2-c1ccc(OCc2ccccc2)cc1)N1CCOCC1 | 9.92% |
| COc1cccc(OCC(=O)O/N=C(\N)c2ccncc2)c1 | 2.03% |
| CC(C)C[C@H](Nc1ccccc1C#N)C(=O)NCC#N | -10.1% |
| Cc1nn(-c2ccc(F)cc2)c(-n2cccc2)c1C(=O)N1CCC(C(N)=O)CC1 | 4.01% |
| CN1CCN(c2ccc3c(ccc4c5ccccc5[nH]c34)n2)CC1 | -4.82% |

| SMILES | % Inhibition @ 10 uM |
| --- | --- |
| CC(C)CCNC(=O)C1CCN(c2nnc(-n3cccc3)s2)CC1 | 2.76% |
| Cc1ccc(OCC(=O)Nc2ccc(S(=O)(=O)N3CCCCC3)cc2)c(Br)c1 | 1.94% |
| O=C(N/C(=C/c1cccnc1)C(=O)N1CCCCCC1)c1cccc(Br)c1 | 4.07% |
| Cc1cc(Br)ccc1OCC(=O)Nc1ccccc1C(=O)Nc1ccccc1 | -7.28% |
| CCOc1ccc(CCN2C(=O)c3ccc(C(=O)O)cc3C2=O)cc1OCC | 4.19% |
| O=C1OC(/C=C/c2ccccc2)=NC/1=C/c1ccc(F)cc1 | 0.944% |
| Cc1[nH]c(SCC(=O)Nc2ccc(Cl)cn2)nc1Cc1ccc(O)cc1 | 3.47% |
| Cc1cc(C)c2[nH]c3nc(S)nnc3c2c1 | 40.8% |
| O=C1OC(c2ccco2)=N/C1=C\c1ccc(Cl)cc1 | -6.97% |
| CCOc1cc2c(cc1OCC)C(CC(=O)O)N(C(=O)NC13CC4CC(CC(C4)C1)C3)CC2 (stereo not drawn) | 0.677% |
| COCCNC(=O)CSCc1nc(-c2ccccc2F)oc1C | -1.05% |
| COc1cc(OC)c(C2C3=C(O)CCCC3=Nc3ncnn32)cc1OC (stereo not drawn) | 3.32% |
| Cc1cc2ccccc2n1CCNC(=O)COc1ccc2ccccc2c1 | 0.205% |
| CCN1CCC(N2CCN(Cc3ccccc3)CC2)CC1 | -3.6% |
| Cc1sc(NC(=O)C2CCCCC2C(=O)O)c(C(N)=O)c1C (stereo not drawn) | -5.81% |
| Cc1cc(C)c(NC(=O)Cn2c(C)nc3ccccc32)c(C)c1 | 0.13% |
| O=C(CC12CC3CC(CC(C3)C1)C2)NCc1cccnc1 | -4.04% |
| COc1ccc(CN2CCN(Cc3ccco3)CC2)cc1OC | -4.82% |
| CCC(C)NC(=O)CN1C(=O)CSc2ncccc21 (stereo not drawn) | 1.03% |
| CCCOC(=O)c1c(NC(=O)CCCC(=O)O)sc2c1CCC(C)C2 (stereo not drawn) | -4.77% |
| CCc1c2c(nc3sc(C(=O)Nc4ccc(F)cc4)c(N)c13)CC(C)(C)CC2=O | 8.21% |
| CCOc1cc(/C=C2\SC(N3CCN(C)CC3)=NC2=O)ccc1O | 8.94% |
| CCOC(=O)c1c(N)sc2c1CCC1(CCOC(C)(C)C1)C2 (stereo not drawn) | 0.0538% |
| O=C(CCc1nnc2n(CCc3ccccc3)c(=O)c3ccccc3n12)NCCCN1CCOCC1 | 4.16% |
| COc1ccccc1C1C(C#N)=C(N)Oc2cc(O)c(Cl)cc21 (stereo not drawn) | 3.03% |
| COc1cc2c(cc1OC)C(c1cc3c(cc1[N+](=O)[O-])OCO3)N(C(C)=O)CC2 (stereo not drawn) | -2% |

| SMILES | % Inhibition @ 10 uM |
| --- | --- |
| Cc1ccc(S(=O)(=O)CCc2ccccc2)cc1 | 1.42% |
| COc1cccc(-c2nc(O)c3c(n2)Oc2ccc(C)cc2C3)c1O | 0.655% |
| NC(=O)c1ccc(NC(=O)COc2ccc(S(=O)(=O)NC3CCCC3)cc2)cc1 | -0.545% |
| Cc1ccc(NC(=O)CSC2=C(C#N)C(c3ccco3)CC(=O)N2)cc1Cl (stereo not drawn) | 0.751% |
| Cc1cccc(N2C(=O)CC(N3CCN(c4ccccn4)CC3)C2=O)c1 (stereo not drawn) | 2.44% |
| CCC(C)NC(=O)c1cc(-c2ccc(Br)cc2)[nH]n1 (stereo not drawn) | 5.12% |
| CCCc1nnc2sc(NC(=O)c3ccc(F)cc3)nn12 | 9.28% |
| O=C(COc1ccccc1)Nc1ccc(NC(=O)COc2ccccc2)cc1 | -0.67% |
| CC1CN(Cc2ccc(Br)o2)CC(C)O1 (stereo not drawn) | 1.87% |
| COc1ccc(C(=O)Nc2ccccc2C(F)(F)F)cc1 | -3.04% |
| O=C1N=C(Nc2ccc(Br)cc2)S/C1=C1\C(=O)Nc2ccc(F)cc21 | 4.83% |
| O=C(Nc1cc(Cl)ccc1Cl)c1ccc(-c2ccccc2)cc1 | -0.771% |
| Cc1ccc(NC(=O)COc2ccc(Cl)cc2C)cc1 | -0.641% |
| O=C(CCC1CCCC1)Nc1cccc(C(=O)O)c1 | 2.84% |
| CCOc1ccccc1NC(=O)c1ccc(Cl)cc1Cl | 5.07% |
| CO/C(O)=C1\C(C)=NC2=C(C(=O)CCC2)C1c1ccc(C)s1 (stereo not drawn) | -3.44% |
| O=S(=O)(NC1CCCc2ccccc21)c1ccc(-c2ccc(O)nn2)s1 (stereo not drawn) | -1.42% |
| CC12CCC(C(=O)Nc3ccc4c(c3)OCO4)(C(=O)C1=O)C2(C)C (stereo not drawn) | 1.78% |
| Cc1ccccc1CNC(=O)CCCn1nc(C)c2c(C)n(-c3ccccc3)nc2c1=O | -1.03% |
| CCOC(=O)N1CCC2(CC1)OC(=O)C(C)=C2C(=O)NCc1ccc(F)cc1 | -1.31% |
| O=C(O)c1cc(S(=O)(=O)Nc2ccc(Br)cc2)c(Cl)cc1Cl | -1.78% |
| N#Cc1nc(/C=C/c2cccs2)oc1NCCCn1ccnc1 | 0.00706% |
| Cc1ccc(C)c(NC(=O)c2cc(F)c(Cl)nc2Cl)c1 | 0.907% |
| Cn1c(N2CCCCC2)nc2c1c(=O)[nH]c(=O)n2C | 4.7% |
